From PubChem BioAssay AID1030 (National Center for Advancing Translational Sciences (NCATS), 2008)
Several values for one entry are separate records, joined by “and”; a condition that tells them apart may be missing. Equal entries are not always repeated. About 16,000 (7.3%) of roughly 220,000 compounds were called active. The inconclusive results got no clear call from the source; some entries with a clear call stand among them for comparison. The call rests on the fitted dose curve; in most records, active means well fitted inhibition curve with a large enough effect (not every such curve was filed as active); inconclusive means small, poorly fitted or top-dose-only effect, or another doubt; inactive means no such curve, though single readings can be large or run the other way. Potencies of inconclusive entries are doubtful fits and often do not repeat.
Potency means the concentration at half of the fitted maximal effect; tags describe the fitted curve by direction and shape.
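Wherever activity, negative = inhibition is given: plate controls were no enzyme wells and a reference inhibitor.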

These compounds were tested against Aldehyde dehydrogenase 1A1 (Homo sapiens) (UniProt P00352) (assay: qHTS Assay for Inhibitors of Aldehyde Dehydrogenase 1 (ALDH1A1)). Settings: Purified ALDH1A1, NADH fluorescence, propionaldehyde substrate; series mostly up to 75.3 µM; activity, negative = inhibition: at the top concentration.
Sequence of UniProt P00352 (P00352 whole entry, looked up): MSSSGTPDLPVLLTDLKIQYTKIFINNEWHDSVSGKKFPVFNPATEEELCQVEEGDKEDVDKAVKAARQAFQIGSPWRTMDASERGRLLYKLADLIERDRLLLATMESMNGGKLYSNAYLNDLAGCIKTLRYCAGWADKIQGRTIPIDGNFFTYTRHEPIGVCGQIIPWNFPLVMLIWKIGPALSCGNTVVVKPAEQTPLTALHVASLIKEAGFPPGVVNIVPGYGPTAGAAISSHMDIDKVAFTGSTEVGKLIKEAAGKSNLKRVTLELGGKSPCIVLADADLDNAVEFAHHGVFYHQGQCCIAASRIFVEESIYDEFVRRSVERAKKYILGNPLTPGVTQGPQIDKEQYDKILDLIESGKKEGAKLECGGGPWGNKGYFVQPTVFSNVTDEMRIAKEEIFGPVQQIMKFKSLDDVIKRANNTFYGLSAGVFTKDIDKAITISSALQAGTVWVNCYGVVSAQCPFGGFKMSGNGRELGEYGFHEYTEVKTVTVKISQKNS
With `COc1ccc(-c2nc3cc(NC(=S)NC(=O)Cc4ccccc4)ccc3o2)cc1` the Potency was active: 11.2 µM.
For `COc1cc(CCC(=O)Oc2ccc(C(C)=O)cc2)cc(OC)c1OC`, the “activity, negative = inhibition” value was inactive: 0.474%.
In the case of `CC(C)C(=O)NS(=O)(=O)c1ccc(N)cc1`, the Potency was inconclusive: 39.8 µM [inhibitor, single point].
In the case of `O=c1cc(-c2ccco2)oc2c1ccc1ccccc12`, the Potency was inconclusive: 39.8 µM [inhibitor, single point].
For `COc1ccc(-n2c(=S)[nH]c3sc4c(c3c2=O)CCc2ccccc2-4)cc1`, the Potency was active: 3.98 µM.
For `O=C1CSC(c2ccccc2[N+](=O)[O-])N1CCc1ccccc1` (configuration not stated), the Potency was inconclusive: 37.7 µM [inhibitor, single point].
For `O=C(CSc1ccc(Br)cc1)NCC1CCCO1` (configuration not stated), the Potency was inconclusive: 39.8 µM [inhibitor, single point].
In the case of `CC1=CC(C)(C)NC(=S)N1c1cccc2cc(S(=O)(=O)O)ccc12`, the Potency was active: 28.2 µM.
With `c1cncc(N=c2scc(-c3cccc4ccccc34)n2CCCn2ccnc2)c1` the Potency was inconclusive: 39.8 µM [inhibitor, single point].
With `Cc1cc(C)nc(N2CCCC(C(=O)Nc3ccc4nc(C)c(C)nc4c3)C2)n1` (configuration not stated) the Potency was active: 15.8 µM.
With `O=c1c2ccccc2nc(N/N=C/c2c(O)ccc3ccccc23)n1O` the Potency was inconclusive: 39.8 µM [inhibitor, single point].
With `CC1CC2(CC(C)(C(=O)CSc3nc4ccccc4s3)OC2=O)C(=O)O1` (configuration not stated) the “activity, negative = inhibition” value was inactive: -4.66%.
For `COC(=O)c1ccc2nc(NC(=O)COC(=O)CSc3nc(C)cc(C)n3)sc2c1`, the “activity, negative = inhibition” value was inactive: 4.37%.
In the case of `CCC(C)NCCCOc1cc(Cl)ccc1Cl` (configuration not stated), the Potency was inconclusive: 39.8 µM [inhibitor, single point].
With `CC(Sc1nc(-c2ccccc2)cc(C(F)(F)F)n1)C(=O)Nc1sc2c(c1C(N)=O)CCC2` (configuration not stated) the Potency was inconclusive: 35.5 µM [inhibitor, partial curve, poor fit].
`c1ccc(CCNc2ncnc3c2cnn3-c2ccccc2)cc1` was tested, and the Potency was inconclusive: 39.8 µM [inhibitor, single point].
With `CCCCC(CC)C(=O)Oc1ccc(O)c(C(C)(C)C)c1` (configuration not stated) the “activity, negative = inhibition” value was inactive: -0.506%.
In the case of `COc1ccc(C(=O)C(CCC(CNC(C)(C)C)C(=O)c2ccc(OC)cc2)CNC(C)(C)C)cc1` (configuration not stated), the Potency was active: 8.91 µM.
`CSc1nc(=O)n2cc(C)ccc2n1` was tested, and the “activity, negative = inhibition” value was inactive: 2.73%.
For `COCCNc1nnc(SC(C)C(=O)Nc2ccc(-c3nc4ccc(C)cc4s3)cc2)s1` (configuration not stated), the Potency was inconclusive: 35.5 µM [inhibitor, single point].
With `O=C(c1csc2ccccc12)N1CCN(c2ccccn2)CC1` the Potency was inconclusive: 39.8 µM [inhibitor, single point].
`O=C(/C=C/c1ccccc1)c1cc(Br)ccc(=O)c1O` was tested, and the Potency was active: 7.08 µM.
With `Cc1nn(Cc2ccccc2)c2c1C(c1ccccc1)C(C#N)=C(N)O2` (configuration not stated) the Potency was active: 7.08 µM.
With `Cc1ccc(CNC(=O)C(Cc2ccccc2)NS(=O)(=O)c2ccc(Br)s2)cc1` (configuration not stated) the “activity, negative = inhibition” value was inactive: -10.1%.
`C=C1CCC(C2CC(=O)OC2=O)C(=O)CCC2C1CC2(C)C` (configuration not stated) was tested, and the “activity, negative = inhibition” value was inactive: 0.757%.
With `Cn1c(Cl)c(C(=O)Nc2ccccc2)c2ccccc21` the Potency was inconclusive: 44.7 µM [inhibitor, single point].
In the case of `Cc1cc(N/N=C2/CCCc3ccccc32)nc2ccccc12`, the “activity, negative = inhibition” value was inactive: -6.14%.
`Cc1ccc(NC(=O)CSc2ccc(-c3ccco3)nn2)cc1` was tested, and the Potency was active: 3.16 µM.
For `CC(C)OCCCNc1ncc2c(n1)CC(c1ccc(N(C)C)cc1)CC2=O` (configuration not stated), the Potency was active: 8.91 µM.
With `CC(C)(C)c1nnc(N/N=C/c2ccccc2)n(N)c1=O` the “activity, negative = inhibition” value was inactive: 6.9%.
In the case of `O=C(c1ccco1)c1cn(CC(=O)N2CCCCCC2)c2ccccc12`, the Potency was inconclusive: 39.8 µM [inhibitor, single point].
With `Clc1ccccc1CNCC1CCC(CNCc2ccccc2Cl)CC1` (configuration not stated) the “activity, negative = inhibition” value was inactive: -1.05%.
`COc1ccc2nc(SCC(=O)Nc3cc(OC)c(OC)cc3C(=O)O)c(C)cc2c1` was tested, and the “activity, negative = inhibition” value was inactive: -3.26%.
In the case of `CN(C)c1ccc(/C=N/NC(=O)COc2ccccc2)cc1`, the Potency was inconclusive: 28.2 µM [inhibitor, partial curve].
In the case of `Cc1cc(C)c2nc3s/c(=C/c4ccccc4)c(=O)n3c2c1`, the Potency was active: 3.16 µM.
For `Nn1cc(-c2ccccc2)nc1SCC(=O)NCCc1ccccc1`, the Potency was active: 3.16 µM.
For `COCC(=O)NC1CCN(CC(=O)Nc2ccc(OC)cc2[N+](=O)[O-])CC1`, the Potency was active: 12.6 µM.
For `COc1cccc(-c2nc(CS(=O)(=O)CC(=O)NC3CCCc4ccccc43)c(C)o2)c1` (configuration not stated), the Potency was inconclusive: 35.5 µM [inhibitor, partial curve].
`O=c1oc(-c2cccnc2)nc2ccccc12` was tested, and the “activity, negative = inhibition” value was inactive: 6.88%.
With `CCn1cc(C(=O)NCc2ccco2)c(=O)c2cc(S(=O)(=O)N3CC(C)CC(C)C3)ccc21` (configuration not stated) the Potency was inconclusive: 22.4 µM [inhibitor, partial curve].
For `O=C(CSc1ncnc2nc[nH]c12)c1ccc([N+](=O)[O-])cc1`, the Potency was inconclusive: 31.6 µM [inhibitor, single point].
In the case of `COC(=O)c1ccc(C2NC(=S)N(c3ccccc3)C(C)=C2C(=O)Nc2ccccc2OC)cc1` (configuration not stated), the Potency was inconclusive: 39.8 µM [inhibitor, single point].
For `CCN=C(NC#N)SCc1c(F)cccc1Cl`, the Potency was inconclusive: 35.5 µM [inhibitor, partial curve, poor fit].
For `CN(C)S(=O)(=O)N1CCN(C(=O)N(c2ccccc2)c2ccccc2)CC1`, the Potency was inconclusive: 0.794 µM [inhibitor, full curve].
For `NNC(=O)CNC(=O)c1ccccc1F`, the “activity, negative = inhibition” value was inactive: 3.02%.
`O=C(CC(=O)NC1CCCCC1)N/N=C/c1cccc2ccccc12` was tested, and the Potency was inconclusive: 31.6 µM [inhibitor, single point].
In the case of `CCCN(CCC)C(=O)c1ccc2c(=O)n(Cc3ccco3)c(=S)[nH]c2c1`, the Potency was active: 25.1 µM.
With `CN1CCC(=C2c3ccccc3Sc3ccccc32)CC1` the Potency was “inactive”.
`O=C(CSc1nc2cc(Cl)ccc2o1)N1CCOCC1` was tested, and the “activity, negative = inhibition” value was inactive: -1.95%.
`O=C(c1cnccn1)N1CCC2(CCCN(c3ccccn3)C2)CC1` was tested, and the “activity, negative = inhibition” value was inactive: 1.58%.
`Cc1nc(N2CCN(C(=O)c3ccco3)CC2)c2c3c(sc2n1)CCCC3` was tested, and the Potency was active: 39.8 µM.
In the case of `O=c1cc(-c2ccccc2Cl)c2c([nH]1)CCC2`, the Potency was inconclusive: 39.8 µM [inhibitor, single point].
In the case of `Cc1cccc(-n2c(SCC(=O)Nc3ccc4c(c3)OCO4)nnc2-c2ccoc2C)c1`, the Potency was inconclusive: 39.8 µM [inhibitor, single point].
With `CCOc1ccc(NS(=O)(=O)c2cc(C)c(C)cc2C)cc1` the Potency was active: 7.94 µM.
With `FC(F)Oc1ccc(NC(=S)NCCc2ccccn2)cc1` the “activity, negative = inhibition” value was inactive: -11.8%.
With `Cc1cc(C)cc(C(=O)N2CC(=O)Nc3ccccc32)c1` the Potency was inconclusive: 39.8 µM [inhibitor, single point].
`CCN(CC)S(=O)(=O)c1ccc(N(C)Cc2cccnc2)nc1` was tested, and the Potency was inconclusive: 15.8 µM [inhibitor, partial curve].
In the case of `N#Cc1c(N)sc2c1CCCCCC2`, the Potency was inconclusive: 25.1 µM [inhibitor, partial curve].
In the case of `COc1ccc(/C=N/NC(=O)CN(c2ccc(OC)cc2)S(=O)(=O)c2ccccc2)cc1`, the “activity, negative = inhibition” value was inactive: -8.99%.
With `Cc1ccc(C(=O)Nc2ccc(Br)cc2)cc1S(=O)(=O)Nc1ccccn1` the “activity, negative = inhibition” value was inactive: 2.46%.
In the case of `Oc1ccccc1CNc1nc2ccccc2n1CCN1CCCCC1`, the Potency was inconclusive: 7.08 µM [inhibitor, partial curve].
With `O=C(c1cc2ccccc2oc1=O)N(c1ccccc1)C1C=CS(=O)(=O)C1` (configuration not stated) the “activity, negative = inhibition” value was inactive: 6.23%.
`COC(=O)c1cc(C(=O)OC)cc(N2C(=O)CC(NNC(=O)c3ccccc3Cl)C2=O)c1` (configuration not stated) was tested, and the Potency was inconclusive: 39.8 µM [inhibitor, single point].
`O=C(/C=C/c1ccc([N+](=O)[O-])cc1)OCc1cnc(-c2ccccc2)o1` was tested, and the “activity, negative = inhibition” value was inactive: 4.34%.
In the case of `Cc1ccc(C)c(NS(=O)(=O)c2ccc(OCC(=O)NCc3ccco3)cc2)c1`, the Potency was inconclusive: 28.2 µM [inhibitor, single point].
In the case of `Cc1nc2ccccn2c1C(=O)N/N=C/c1cc(C)n(-c2ccc(Br)cc2)c1C`, the Potency was inconclusive: 39.8 µM [inhibitor, single point].
With `COCCn1c(=NC(=O)C2COc3ccccc3O2)sc2cc(S(N)(=O)=O)ccc21` (configuration not stated) the Potency was inconclusive: 25.1 µM [inhibitor, single point].
In the case of `Nc1c2ccccc2nc2ccccc12`, the Potency was inconclusive: 35.5 µM [inhibitor, partial curve] and inconclusive: 28.2 µM [inhibitor, single point].
In the case of `Cc1ccccc1NC(=O)c1cc(=O)c2ccccc2o1`, the Potency was inconclusive: 39.8 µM [inhibitor, single point].
In the case of `COc1cc(C(=O)N2CCN(C/C=C/c3ccccc3)CC2)cc(OC)c1OC`, the Potency was inconclusive: 39.8 µM [inhibitor, single point].
`c1ccc(C2=Nn3c(nnc3-c3ccncc3)SC2)cc1` was tested, and the “activity, negative = inhibition” value was inactive: 14.5%.
`O=C(N/C(=C/c1ccc(Br)cc1)C(=O)N1CCCC1)c1cccs1` was tested, and the Potency was inconclusive: 39.8 µM [inhibitor, single point].
In the case of `CCCCc1ccc(NC(=S)NN2CCOCC2)cc1`, the “activity, negative = inhibition” value was inactive: 5.59%.
For `O=C(Cc1cccc2ccccc12)N/N=C/c1ccc(Sc2cccc3cccnc23)o1`, the Potency was inconclusive: 35.5 µM [inhibitor, single point].
For `COc1ccccc1S(=O)(=O)Cc1ccc(C(=O)NCCN2CCCCCC2)o1`, the “activity, negative = inhibition” value was inactive: 1.76%.
For `CC(NC(=O)C12CC3CC(CC(C3)C1)C2)C(=O)NCCN(C)C` (configuration not stated), the Potency was inconclusive: 28.2 µM [inhibitor, partial curve].
For `N#CC(C#N)=C/C(C#N)=C(/N)N1CCN(c2ccc(Cl)cc2)CC1`, the Potency was inconclusive: 35.5 µM [inhibitor, single point].
